In PMC7819943, “Rice protein-binding microarrays: a tool to detect cis-acting elements near promoter regions in rice” one finds binding signal data, which are given here for 42 sequences.

This is one part of the list.

For this experiment, the target named is T1, OsWOX13 (Oryza sativa, UniProt Q5QMM3 1-267).
T1 sequence: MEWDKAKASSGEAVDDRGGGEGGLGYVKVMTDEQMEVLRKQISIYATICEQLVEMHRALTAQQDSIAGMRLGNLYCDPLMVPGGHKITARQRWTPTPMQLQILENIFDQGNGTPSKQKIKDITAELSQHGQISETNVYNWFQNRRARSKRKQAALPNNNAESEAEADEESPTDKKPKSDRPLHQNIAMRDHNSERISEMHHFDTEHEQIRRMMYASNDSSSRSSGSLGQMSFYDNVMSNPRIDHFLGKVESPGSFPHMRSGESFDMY
In words: protein-binding microarray (RPBM); PBS, 2% BSA, 51.3 ng/ul salmon testes DNA, 50 uM zinc acetate, 200 nM TF, 25 C, 1 h; high values mean tight binding. The settings on record: protein: recombinant; tags: N-terminal polyhistidine and DsRed monomer fusion (pET32a); label: CyDye5-dUTP incorporated in the synthesized complementary strand; 3' TTTTT single-stranded linker to array surface; dsDNA, one strand shown. Put shortly: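 Binding signal here means per-feature fluorescence intensity in arbitrary units. The values were read on an Axon 4000B scanner after a custom Agilent array, double-stranded by primer extension with Cy5-dUTP, was incubated with 200 nM protein at 25 °C for 1 h in PBS with 2% BSA, salmon testes DNA and 50 µM zinc acetate, then washed. The proteins were transcription factors with an N-terminal polyhistidine tag and DsRed, expressed in E. coli BL21-CodonPlus and purified on Ni–NTA.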
For the sequence “GTTGGCTCGCCATTCCAGAGCTCGAGGTGGAGATCGCGGGCGGAGTCACCTAGTGCAG”, the binding signal was 17600 fluorescence intensity (a.u.).
As for “TCAAATTTACACATCTAAAGTTTAGAGACCCAAAGTTTATCGGAGTCACCTAGTGCAG”, the figure is 3510 fluorescence intensity (a.u.); as for “ATGTTTGAAAATTAATTTAGAGTAATAAACATAGACTACACGGAGTCACCTAGTGCAG”, 18300 fluorescence intensity (a.u.).
Consider “GGCTAAATTACCACCCTAACTCGATTCGAAGCGGTTTTCACGGAGTCACCTAGTGCAG”, for which the binding signal is 20700 fluorescence intensity (a.u.).
As for “CAAATTTTCAAGTTGATGGATCACAAAGTGAGTGAGTAAGCGGAGTCACCTAGTGCAG”, the figure is 4290 fluorescence intensity (a.u.); as for “TTCTGATGGAGAGTTTTCTGAATAGAGGCCTCGGACTTCACGGAGTCACCTAGTGCAG”, 5390 fluorescence intensity (a.u.); as for “CTACTTATACTGACAAATTATGGCATGACTAAAATTTGGCCGGAGTCACCTAGTGCAG”, 11300 fluorescence intensity (a.u.).
Take “ATTTGATTAGAAAATGAAACGACTTATAATAGTCCATCCGCGGAGTCACCTAGTGCAG”: the binding signal is 43700 fluorescence intensity (a.u.).
As for “TACCTGTTCTCACAATATGGATTGACATCTGTTCATATATCGGAGTCACCTAGTGCAG”, the figure is 3290 fluorescence intensity (a.u.); as for “ATAGCATCCAATTAGATTGTTGACATCCGGTTGAATAGAACGGAGTCACCTAGTGCAG”, 9070 fluorescence intensity (a.u.).
The figure for “ATGGTCCCTCTGGCTCGTTAATTGATGAGACAAGTATAGCCGGAGTCACCTAGTGCAG” is 15500 fluorescence intensity (a.u.); for “TAGTTATAACACCAATCAAATAAATACTGTAAAACTAATACGGAGTCACCTAGTGCAG” it is 7010 fluorescence intensity (a.u.); for “CCTGGTTTGATGGACTCTTATTATTTTATCTCGTGCTCATCGGAGTCACCTAGTGCAG” it is 4370 fluorescence intensity (a.u.).
The figure for “GCGGTGGTATAATCATCATTTAGAAGTGACTAAACCCATTCGGAGTCACCTAGTGCAG” is 3340 fluorescence intensity (a.u.); for “TTCTTTAATTTGTAGGAATAACATTATGGAGGACTTTAATCGGAGTCACCTAGTGCAG” it is 11600 fluorescence intensity (a.u.); for “GCTGATTACTACTCCTTTTGTTATGTTTTCCTCCTCCTCTCGGAGTCACCTAGTGCAG” it is 40600 fluorescence intensity (a.u.).
Take “TCGGATTGATCGTCAAATTAAGGGACATCAAATGAACTTACGGAGTCACCTAGTGCAG”: the binding signal was 25100 fluorescence intensity (a.u.).
“TTTATAACATTGTTAATTGATTAGGCATGCAATGCCATATCGGAGTCACCTAGTGCAG”: the binding signal was 32300 fluorescence intensity (a.u.).
The figure for “CCGCATTGGTGGTAATTAGATTTGGTACTACCACTGTCCCCGGAGTCACCTAGTGCAG” is 9050 fluorescence intensity (a.u.); for “CATTGATGAACTTGACTTAATTAACGTGCACGTACCTTAACGGAGTCACCTAGTGCAG” it is 14500 fluorescence intensity (a.u.).
For “AATGATGATATAATTAATACGTAGAAGATGTTTGCTGGAACGGAGTCACCTAGTGCAG”, the binding signal was 40900 fluorescence intensity (a.u.).
For the sequence “GACATGATAGCGCAAAATTTGACAGCATTGTCCATTTCCACGGAGTCACCTAGTGCAG”, the binding signal was 8060 fluorescence intensity (a.u.).
As for “TGGATAATTACGGGGATGCATCCCGAAATCCAGCGTGAAACGGAGTCACCTAGTGCAG”, the binding signal is 6590 fluorescence intensity (a.u.).
As for “CACACTGATTAACACTGCACATGCATTATTATATATTCGACGGAGTCACCTAGTGCAG”, the figure is 15100 fluorescence intensity (a.u.).
Turning to “GATTCGATGGGTTGTTGATTGGAGGAGAGCCTCGGGAGGGCGGAGTCACCTAGTGCAG”, the binding signal is 17300 fluorescence intensity (a.u.).
As for “AAATCAATTACTAGTGCGCGGTTTGTTGAGGAAAAGGCAACGGAGTCACCTAGTGCAG”, the figure is 6960 fluorescence intensity (a.u.); as for “CATGACTGCATCGATCTATTCAACAGCTATAAATCCGAGGCGGAGTCACCTAGTGCAG”, 7400 fluorescence intensity (a.u.).
The figure for “TAAAATTGACATATAAAATCTCAACACCCTAGTTTCACTCCGGAGTCACCTAGTGCAG” is 34200 fluorescence intensity (a.u.).
In the case of “AAAATTATTAACTTCTTGTTTCGATCACCCTAATAAATAGCGGAGTCACCTAGTGCAG”, the binding signal is 4280 fluorescence intensity (a.u.).
For the sequence “CCATCAAATATAAATTAGCATCACATAAAAGTACTTCAAACGGAGTCACCTAGTGCAG”, the binding signal was 8000 fluorescence intensity (a.u.).
The figure for “GTAACAGTTAATGCTAAAATGATAGTAGCATGATATCGTACGGAGTCACCTAGTGCAG” is 4570 fluorescence intensity (a.u.); for “AAGAACAGATCGCATCAATCAAACCGCCGGATCAAACCGGCGGAGTCACCTAGTGCAG” it is 4400 fluorescence intensity (a.u.); for “AATCTAATGGGCAAGAGACTGGCTAAGCCCAGTACGCGGCCGGAGTCACCTAGTGCAG” it is 4240 fluorescence intensity (a.u.).
Regarding “TCAAAATTAGAAGTTTGAAGAAATTGGAACGATGTGATGGCGGAGTCACCTAGTGCAG”, the binding signal was 7940 fluorescence intensity (a.u.).
“ACGTGATAGCGGATCACAAAATTTTAAATGTTTCGTTGACCGGAGTCACCTAGTGCAG”: the binding signal was 5590 fluorescence intensity (a.u.).
The figure for “AATCCAAGAAATCAATCAATCACGCAACTGCATCATGATACGGAGTCACCTAGTGCAG” is 29400 fluorescence intensity (a.u.).
For “TAAATTTGTGATAAAACAAATTATCGAATGTTTTAGTATTCGGAGTCACCTAGTGCAG”, the binding signal is 5290 fluorescence intensity (a.u.).
The figure for “ATCCACCAATCACATACTAAGCTTGTTTCTTACCATACGGCGGAGTCACCTAGTGCAG” is 17000 fluorescence intensity (a.u.); for “CCATTTGATTTTGAATTCGCCAAGAGCCAGCAACAGCGCCCGGAGTCACCTAGTGCAG” it is 5030 fluorescence intensity (a.u.).
For “GTTACCATGTGACTATCAATTGATAGGTCTCACTAAAAGACGGAGTCACCTAGTGCAG”, the binding signal is 5930 fluorescence intensity (a.u.).
The figure for “GTTGAGGGGATGGGATGGGATGGGATGGGACGAACTCACTCGGAGTCACCTAGTGCAG” is 4920 fluorescence intensity (a.u.); for “ATGTGACGTAAATTAGACTCAAAAGATTCGTCTCGCGATTCGGAGTCACCTAGTGCAG” it is 17400 fluorescence intensity (a.u.).
